Experimental data reported in PubChem BioAssay AID686970 (National Center for Advancing Translational Sciences (NCATS), 2013).
In all, about 360,000 compounds went through this assay and about 6,000 (1.7%) were called active. The shares of active, inactive and inconclusive entries below differ from those in the screen. Calls come from the whole dose curve; as a rule, active = well fitted cell-killing curve with a large enough effect; inconclusive = small, poorly fitted or top-dose-only effect, or effect the other way; inactive = flat fitted curve, though single readings scatter. Potencies of inconclusive entries are left out as doubtful fits.
Potency is the fitted concentration of half-maximal effect; tags give direction and shape of the fitted curve.

Experiment: qHTS for induction of synthetic lethality in tumor cells producing 2HG: qHTS for the HT-1080-NT fibrosarcoma cell line;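 note: NT is the 2HG producing partner of a matched IDH1 knockdown line; nearly all actives have a fitted effect of over 55% in size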;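 for activity, negative = less viability: 0% = DMSO-treated cells and -100% = media-only wells without cells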
Settings: HT-1080-NT fibrosarcoma viability, CellTiter-Glo ATP luminescence, 48 h; activity, negative = less viability: at 46.1 µM (top of the series) unless noted
How it was run: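 Luminescent CellTiter-Glo readout after 48 hours of compound exposure at 37 degrees C defined viability of HT-1080-NT cells. Activity was normalized to DMSO wells and cell-free media wells; concentration-response curves were fitted and assigned curve classes.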
With `CCOC(=O)N1CCN(c2ccc(S(=O)(=O)N3CCC(C)CC3)cc2[N+](=O)[O-])CC1` the “activity, negative = less viability” value was inactive: -3.73%. For `Cc1ccc(NC(=O)COC(=O)CCc2c[nH]c3ccccc23)c(C)c1`, the “activity, negative = less viability” value was inactive: -1.27%. In the case of `COc1ccc(-c2nnc3c4ccccc4c(C)nn23)cc1`, the Potency is reported as inconclusive [cytotoxic, single point]. In the case of `O=C(COc1ccccc1-c1ccccc1)N/N=C/c1ccccn1`, the “activity, negative = less viability” value is reported as inactive: -19.8%. For `CCCc1ccc(-c2cc(NC(=O)CSc3nnc(N)s3)n(-c3ccccc3)n2)cc1`, the Potency was active: 16.4 µM. For `O=C(NCc1ccccc1F)C1CCCN1S(=O)(=O)c1ccc(F)cc1` (stereo not given), the “activity, negative = less viability” value was inactive: -4.56%. For `Cc1ccc2[nH]c(C)c(/C=N/Nc3nc4ccccc4s3)c2c1`, the Potency was inconclusive [cytotoxic, single point]. With `O=C(c1ccc(Cl)cc1)N1CCOc2ccccc21` the “activity, negative = less viability” value was inactive: -6.51%. For `CC(C)(C)c1ccc(/C=C/C(=O)Nc2cccnc2)cc1`, the Potency was inconclusive [cytotoxic, single point]. In the case of `CC(N)c1csc(Nc2cc(Oc3ccccc3)ncn2)n1` (stereo not given), the Potency is reported as inconclusive [cytotoxic, partial curve]. With `O=C(N/N=C/c1ccc(O)cc1O)c1ccc(NC(=O)C2CCCCC2)cc1` the Potency was inconclusive [cytotoxic, partial curve]. In the case of `CCc1nc2ccc(C(=O)Nc3cccc(NS(C)(=O)=O)c3)cn2c1N(CC)Cc1cccc(Br)c1`, the Potency is reported as active: 23.1 µM. In the case of `Cc1c(CCOC(=O)C23CC4(C)CC(C)(CC(C)(C4)C2)C3)sc[n+]1CC(=O)c1ccccc1`, the Potency is reported as inconclusive [cytotoxic, single point]. With `CCOC(=O)c1c(C)n(-c2ccc(OC)cc2)c2ccc(O)c(CN(C)C)c12` the Potency was inconclusive [cytotoxic, single point]. For `COc1ccc(OC)c(C(=O)/C=C/c2ccccc2C(F)(F)F)c1`, the Potency was inconclusive [cytotoxic, single point]. With `O=C(NNc1ccccc1)C(=O)NNS(=O)(=O)c1ccc(CCCl)cc1` the Potency was inconclusive [cytotoxic, partial curve]. For `COc1ccc(OC(F)(F)F)cc1CC1(C)C(=O)Nc2cccc(Cl)c21` (stereo not given), the activity, negative = less viability was inconclusive: -50.5%. With `OC(COc1ccccc1Cl)CN1CCN(CC(O)COc2ccccc2Cl)CC1` (stereo not given) the Potency was inconclusive [cytotoxic, single point]. With `CC(C)CN1C(=S)SC(C)(C)C1n1oc(=O)n(-c2ccc(Cl)cc2)c1=O` (stereo not given) the Potency was inconclusive [cytotoxic, single point]. With `NC(=S)N/N=C\c1ccccc1OCc1ccccc1` the “activity, negative = less viability” value was inactive: 0.168%. With `Cc1sc(NC(=O)/C=C/C(=O)O)c(C(N)=O)c1-c1ccc(C(C)(C)C)cc1` the Potency was inconclusive [cytotoxic, single point]. For `COc1ccccc1CNC(=O)C/C(C)=N/NC(=O)COc1ccc(C)cc1Br`, the activity, negative = less viability was inconclusive: -30.4% [cytotoxic]. In the case of `CC(C)COc1ccc(CSCCNC(=S)Nc2ccccc2)cc1`, the Potency is reported as inconclusive [cytotoxic, partial curve]. With `COC(=O)c1c(NC(=O)C2CCCCC2)sc2c1CC(C)(C)NC2(C)C` the Potency was inconclusive [cytotoxic, single point]. In the case of `Cc1cc(OCC(=O)C(C)(C)C)c2c(-c3ccccc3)cc(=O)oc2c1`, the “activity, negative = less viability” value is reported as inactive: -7.41%. With `CCN1CCN(S(=O)(=O)c2ccc(Cl)c(C(=O)Nc3ccccc3N3CCCCC3)c2)CC1` the Potency was inconclusive [cytotoxic, single point]. For `Cc1[nH]n(C)c(=O)c1C(=O)c1c(-c2c(Cl)cccc2Cl)noc1C`, the Potency was active: 20.6 µM. With `O=C(NCC1CCCO1)c1ccccc1NS(=O)(=O)c1cccs1` (stereo not given) the activity, negative = less viability was inconclusive: -14% [cytotoxic]. In the case of `O=C(c1ccccc1)c1cc2cc(Cl)ccc2[nH]1`, the “activity, negative = less viability” value is reported as inactive: -19.1%. In the case of `Cc1cccc(N2CCc3c2nc2ccc(Br)cc2c3N)c1`, the Potency is reported as inconclusive [cytotoxic, single point]. For `C=C1C(=O)[C@]23C[C@H]1CCC2[C@@]1(C)C(C[C@@H]3O)[C@](C)(C(=O)OC)CC[C@@H]1O` (stereo not given in full), the Potency was active: 2.31 µM. With `Cc1ccc(NNC(=O)CCc2ccccc2)c(C)c1` the Potency was inconclusive [cytotoxic, partial curve, poor fit]. In the case of `O=C1c2cccc3cc([N+](=O)[O-])cc(c23)C(=O)N1/N=C/c1ccc(O)cc1O`, the Potency is reported as inconclusive [cytotoxic, partial curve]. For `COc1cc([N+](=O)[O-])cc(/C=N/NC(=O)C(O)(c2ccccc2)c2ccccc2)c1O`, the Potency was inconclusive [cytotoxic, single point]. In the case of `Cc1ccc(-c2c(C)sc(NC(=O)C3C4CCC(O4)C3C(=O)O)c2C(=O)OC(C)C)cc1` (stereo not given), the Potency is reported as inconclusive [cytotoxic, single point].
